# Laboratory results: PubChem BioAssay AID2147 (National Center for Advancing Translational Sciences (NCATS), 2009)
# The campaign covered roughly 230,000 compounds. About 3,600 (1.6%) were called active. This list was built around the results that the source calls inconclusive (neither active nor inactive); the mix of calls is not that of the screen. The call rests on the fitted dose curve; in most records, active means well fitted inhibition curve with a large enough effect (not every such curve was filed as active); inconclusive means small, poorly fitted or top-dose-only effect, or another doubt; inactive means no such curve, though single readings can be large or run the other way. Potencies of inconclusive entries are doubtful fits and often do not repeat.
# Target: Lysine-specific demethylase 4E (Homo sapiens) (UniProt B2RXH2)
# Test: qHTS Assay for Inhibitors of Human Jumonji Domain Containing 2E (JMJD2E)
# Conditions: JMJD2E catalytic domain, FDH-coupled NADH fluorescence (FDH is formaldehyde dehydrogenase); series mostly up to 57.1 µM; activity change, negative = inhibition: at the top concentration
# Further: nearly all actives have a fitted effect of over 50% in size.
# Potency means the concentration at half of the fitted maximal effect; tags describe the fitted curve by direction and shape.
# 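Wherever activity change, negative = inhibition is given: 0% = wells with enzyme and -100% = buffer wells without enzyme.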
# Sequence of UniProt B2RXH2 (B2RXH2 whole entry, looked up, the tested form may be a part): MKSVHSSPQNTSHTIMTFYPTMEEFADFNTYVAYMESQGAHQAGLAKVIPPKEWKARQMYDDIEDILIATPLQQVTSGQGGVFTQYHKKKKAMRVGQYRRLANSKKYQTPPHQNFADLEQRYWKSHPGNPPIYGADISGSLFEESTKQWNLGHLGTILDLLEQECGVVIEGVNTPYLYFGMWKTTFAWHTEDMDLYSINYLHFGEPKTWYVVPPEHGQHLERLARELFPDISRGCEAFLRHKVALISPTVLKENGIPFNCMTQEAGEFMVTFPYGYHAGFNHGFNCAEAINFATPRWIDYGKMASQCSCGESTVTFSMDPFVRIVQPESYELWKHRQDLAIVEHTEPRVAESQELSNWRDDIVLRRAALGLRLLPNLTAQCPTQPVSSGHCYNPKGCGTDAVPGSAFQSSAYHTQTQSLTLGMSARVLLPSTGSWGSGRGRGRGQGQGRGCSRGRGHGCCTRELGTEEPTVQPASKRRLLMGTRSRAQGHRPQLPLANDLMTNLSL
SMILES,"activity change, negative = inhibition",Potency
COC(=O)[C@@]1(C)C[C@@H]1[C@@H](NC(=O)[C@@]1(C)C[C@@H]1[C@@H](NC(=O)[C@@]1(C)C[C@@H]1[C@@H](NC(=O)[C@@]1(C)C[C@@H]1[C@@H](NC(=O)OCc1ccccc1)c1ccccc1)c1ccccc1)c1ccccc1)c1ccccc1,inactive: 5.83%,
Cc1cc(N2CCOCC2)n2cc(-c3ccc(F)cc3)nc2n1,,"inconclusive: 31.6 µM [inhibitor, partial curve]"
Cc1ccc(CN2CCN(/N=C/c3sccc3C)CC2)c(C)c1,inactive: -13.5%,
O=c1cc(CN2CCc3ccccc32)nc2sccn12,,"inconclusive: 39.8 µM [inhibitor, single point]"
CC(C)c1ccc(S(=O)(=O)N2CCN(C(C)C(=O)Nc3ccccc3-c3ccccc3)CC2)cc1 (configuration not stated),inactive: -2.01%,
COCC(=O)n1nc(-c2ccccc2)nc1NCc1ccc(F)cc1,,"inconclusive: 35.5 µM [inhibitor, single point]"
CNC(=S)N/N=C/c1ccc(-c2cccc(C(=O)O)c2)o1,,"inconclusive: 25.1 µM [inhibitor, partial curve]"
COn1c(=O)c(-c2ccc(Cl)cc2)[n+]([O-])c2ccccc21,,"inconclusive: 39.8 µM [inhibitor, single point]"
CCN(Cc1ccccc1)S(=O)(=O)c1ccc(C(=O)Nc2nnc(-c3ccccc3OC)o2)cc1,,"inconclusive: 35.5 µM [inhibitor, partial curve]"
Cc1cc2cc(CNS(=O)(=O)N(C)C)ccc2[nH]1,,"inconclusive: 39.8 µM [inhibitor, single point]"
Cc1ccc(S(=O)(=O)N[C@H](C(=O)OCC(=O)N2N=C(c3ccc(Cl)cc3)CC2c2ccco2)C(C)C)cc1 (some centres not stated),,"inconclusive: 20 µM [inhibitor, partial curve]"
Cc1cc(NC(=O)CSc2n[nH]c(-c3cccs3)n2)no1,inactive: 12.1%,
COc1ccccc1OCC(=O)NNc1c2ccccc2nc2ccccc12,,"inconclusive: 39.8 µM [inhibitor, single point]"
CCOC(=O)C1=NN(C(=O)c2cccc(Br)c2)C(O)(C(C)(C)C)C1 (configuration not stated),,"inconclusive: 39.8 µM [inhibitor, single point]"
CC(C)(C)CNc1cc(N2CCOCC2)ccc1[N+](=O)[O-],inactive: 4.3%,
NS(=O)(=O)c1ccc2nc(NC(=O)c3ccc(Br)o3)sc2c1,,"inconclusive: 39.8 µM [inhibitor, single point]"
O=C(NCCO)c1cc2cc(Cl)cc(Cl)c2oc1=O,,"inconclusive: 25.1 µM [inhibitor, single point]"
COc1ccccc1CNc1ncncc1-c1ccccc1CN(C)C,,"inconclusive: 39.8 µM [inhibitor, single point]"
Nc1[nH]nc2c1NN(c1ccc(Cl)cc1Cl)N2,inactive: -5.28%,
O=[N+]([O-])c1cccc2c(Br)[nH]nc12,,"inconclusive: 22.4 µM [inhibitor, single point]"
Nc1cccc2c1C(=O)N(C(=O)c1cccc(S(=O)(=O)N3CCCCCC3)c1)C2=O,,"inconclusive: 39.8 µM [inhibitor, single point]"
O=C(N/N=C/c1cc([N+](=O)[O-])ccc1O)Nc1ccccc1,,active: 28.2 µM
O=C(NNC(=O)c1sccc1-n1cccc1)c1ccc(F)cc1,,"inconclusive: 0.178 µM [inhibitor, full curve, poor fit]"

SMILES,"activity change, negative = inhibition",Potency
N#CC1=C(N)NC(SCC(=O)O)=C(C#N)C12CCCC2,,"inconclusive: 35.5 µM [inhibitor, single point]"
COc1cc(C(=O)OCC(=O)c2cc(C)n(C)c2C)cc(OC)c1OC,,"inconclusive: 35.5 µM [inhibitor, single point]"
Brc1ccc(-c2csc(-c3c[nH]c4ccccc34)n2)cc1,,"inconclusive: 39.8 µM [inhibitor, single point]"
CCCCc1cc(=O)oc2cc(OCc3nn[nH]n3)ccc12,,"inconclusive: 22.4 µM [inhibitor, partial curve]"
CC(=O)N1CCN(C2=Nc3cccc4cccc2c34)CC1,,"inconclusive: 28.2 µM [inhibitor, single point]"
CCn1c2ccccc2c2cc(NC(=O)C(=O)NCC3CCCO3)ccc21 (configuration not stated),,"inconclusive: 39.8 µM [inhibitor, single point]"
CCOC(=O)NC(Nc1sc2c(c1C(=O)OC)CCN(C)C2)(C(F)(F)F)C(F)(F)F,,"inconclusive: 39.8 µM [inhibitor, single point]"
CC(C)COc1ccc(/C=C2/Sc3ccccc3C2=O)cc1,inactive: -0.0828%,
CCOc1ccc(-c2nnc3ccc(SCc4ccc(C(=O)OC)o4)nn23)cc1,,"inconclusive: 4.47 µM [inhibitor, full curve]"
COc1cc(-c2nc(Cc3c(F)cccc3Cl)no2)cc(OC)c1OC,,"inconclusive: 28.2 µM [inhibitor, single point]"
COC(=O)C1=C(C)NC(C)=C(C(=O)OC)C1c1ccccc1OCc1c(C)no[n+]1[O-],,"inconclusive: 28.2 µM [inhibitor, single point]"
CCCCN(CCCC)c1nc2ccccc2nc1NS(=O)(=O)c1ccc(NC(C)=O)cc1,,"inconclusive: 5.62 µM [inhibitor, full curve]"
COC(=O)CSC1=C(C#N)C(c2ccc(C)cc2)C2=C(CCCC2=O)N1 (configuration not stated),,"inconclusive: 25.1 µM [inhibitor, partial curve]"
COc1cccc(OCCCCN2CC(C)OC(C)C2)c1 (configuration not stated),,"inconclusive: 31.6 µM [inhibitor, single point]"
CCN1c2ccccc2-c2nc3ccccc3n2C1c1ccccn1 (configuration not stated),,"inconclusive: 28.2 µM [inhibitor, partial curve]"
O=C(COc1cccnc1[N+](=O)[O-])Nc1cccc(S(=O)(=O)N2CCCCC2)c1,inactive: -0.192%,
O=C(N1CCCCC1)N1CCN(C(c2ccccc2)c2ccccc2)CC1,,"inconclusive: 8.91 µM [inhibitor, single point]"
COc1ccc([N+](=O)[O-])cc1NC(=S)NC(NC(C)=O)C(Cl)(Cl)Cl (configuration not stated),inactive: 2.85%,
Cc1ccc(C(=O)CSc2nn3c(=O)c(C(C)(C)C)nnc3s2)cc1,inactive: 3.66%,
COc1ccc(-n2cnc3cc(NCc4ccco4)ccc32)cc1,,"inconclusive: 31.6 µM [inhibitor, single point]"
O=C(NC1CCCc2ccccc21)C1CCC(CNS(=O)(=O)c2cccc3nsnc23)CC1 (configuration not stated),,"inconclusive: 31.6 µM [inhibitor, single point]"
CCOC(=O)c1c(N2C(=O)C3C4C=CC(O4)C3C2=O)sc2c1CCCC2 (configuration not stated),inactive: 2.28%,
Cc1nn(-c2ccccc2)c2nc(Cl)c(C(=O)O)cc12,,"inconclusive: 22.4 µM [inhibitor, partial curve]"

SMILES,"activity change, negative = inhibition",Potency
CCn1c(NC(=O)c2ccccc2)nc2ccccc21,,"inconclusive: 22.4 µM [inhibitor, single point]"
CCOC(=O)c1sc2nc(CC(=O)OC)nc(NCCN3CCOCC3)c2c1C,,"inconclusive: 25.1 µM [inhibitor, partial curve]"
CCOc1cc(C2C3=C(CCCC3=O)NC3=C2C(=O)CCC3)cc(Cl)c1O,,"inconclusive: 35.5 µM [inhibitor, single point]"
Nc1cccc2c1C(=O)N(C(=O)c1ccco1)C2=O,,"inconclusive: 35.5 µM [inhibitor, single point]"
O=[N+]([O-])c1cccc(C=Nc2cc3c(cc2Br)OCCO3)c1,,"inconclusive: 31.6 µM [inhibitor, single point]"
O=C(O)CCC/C=C\C[C@@H]1[C@@H](/C=C/[C@@H](O)COc2cccc(C(F)(F)F)c2)[C@H](O)C[C@@H]1O,inactive: 0.041%,
O=C(c1ccc([N+](=O)[O-])cc1)N1CCc2ccccc2C1,inactive: 3.34%,
COc1ccc(-n2c(N3CCN(C)CC3)nc3sc4c(c3c2=O)CCCCC4)cc1,inactive: 7.65%,
Cc1cc(C)c2cc(CN(Cc3nnnn3C3CCCCC3)CC3CCCO3)c(=O)[nH]c2c1 (configuration not stated),,"inconclusive: 39.8 µM [inhibitor, single point]"
CC(C)c1nc(-c2ccccc2)c(-c2ccccc2)[nH]1,,"inconclusive: 28.2 µM [inhibitor, partial curve]"
Cc1ccc(C)c(Cn2c(C(=O)OC(C)C)cc3c2ccn3C)c1,,"inconclusive: 39.8 µM [inhibitor, single point]"
CN(C)S(=O)(=O)c1cccc(NC(=S)N/N=C/C(c2ccccc2)c2ccccc2)c1,,"inconclusive: 35.5 µM [inhibitor, single point]"
Cc1ccc(Nc2nc(N)[nH]c(=O)c2N=O)cc1,,"inconclusive: 35.5 µM [inhibitor, single point]"
C=CCc1cc(Cl)ccc1OCCOCCNCCOC,,"inconclusive: 39.8 µM [inhibitor, single point]"
COC(=O)c1cc(C(=O)Nc2nnc(CC(C)(C)C)s2)cc([N+](=O)[O-])c1,inactive: 2.45%,
O=C(Nc1ccc(F)cc1)Nc1cc(OCC(F)(F)F)cc(OCC(F)(F)F)c1,inactive: -4.31%,
CC(=O)Oc1ccc(N(c2ccccc2)S(=O)(=O)c2ccc(C)cc2)cc1,inactive: -0.375%,
COc1ccc(S(=O)(=O)N(C)CC(=O)N2CCN(Cc3ccccc3)CC2)cc1C,inactive: -0.572%,
Cc1ccc(NC(=O)CN2C(=O)N/C(=C/c3cc(C)n(-c4cccc(C(=O)O)c4)c3C)C2=O)cc1,,"inconclusive: 35.5 µM [inhibitor, partial curve]"
Cc1noc(C)c1COC(=O)[C@@H](NC(=O)c1ccccc1)C(C)C,inactive: 4.01%,
CC(NC(=O)COc1ccc(N(C)S(=O)(=O)c2ccccc2)cc1)c1ccccc1 (configuration not stated),inactive: -13.3%,
